In PubChem BioAssay (Tox21):
“And” between values parts separate entries of the source, which are not always exact repeats. Equal values may be shown once. Inconclusive results, whose numbers are uncertain, are shown with a selection of clear calls. For some of these results: Potencies of inconclusive entries are left out as doubtful fits. The source made the active and inactive calls. Unless noted, calls come from the whole dose curve; as a rule, active = well fitted curve in the direction sought with a large enough effect in the repeat runs; inconclusive = weak or mixed curves; inactive = no such curve, though single readings can be large; an effect the other way counts as inactive or inconclusive.

How the values were obtained:
[1] = qHTS assay for identifying genotoxic compounds that show differential cytotoxicity against isogenic chicken DT40 cell lines with known DNA damage response pathways - Rev3 mutant cell line (AID 743014); settings: chicken DT40 Rev3-/- viability, CellTiter-Glo, 40 h; activity, negative = cytotoxicity: at 68.4 µM (top of the series) unless noted; note: nearly all actives have a fitted effect of over 55% in size; note: potency is the fitted concentration of half-maximal effect
[2] = qHTS assay for identifying genotoxic compounds that show differential cytotoxicity against isogenic chicken DT40 cell lines with known DNA damage response pathways - Rad54/Ku70 mutant cell line (AID 743015); settings: DT40 Rad54/Ku70 mutant viability, CellTiter-Glo, 40 h; activity change, negative = cytotoxicity: at 66.8 µM (top of the series); note: nearly all actives have a fitted effect of over 60% in size; note: potency is the fitted concentration of half-maximal effect
[3] = qHTS assay to identify small molecule antagonists of the estrogen receptor alpha (ER-alpha) signaling pathway using the BG1 cell line (AID 743080; calls by dose curve;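 note: BG1 cells stimulated with 17beta-estradiol alongside compound; nearly all actives have a fitted effect of over 25% in size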; note: potency is the fitted concentration of half-maximal effect; for activity change, negative = inhibition: % is set by controls: 0 for no effect and ±100 for the full control effect); settings: BG1Luc4E2 ERE-luciferase antagonist mode, luminescence; activity change, negative = inhibition: at 70.3 µM (top of the series) unless noted
In short: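 Luminescence from a 4×ERE-luciferase reporter in BG1-Luc-4E2 cells served as read-out. Cells, pre-cultured 5 days in stripped-serum phenol-red-free medium, were exposed to compound with 17beta-estradiol co-stimulation for 21.5 h at 37 C.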

[4] = qHTS assay to identify aromatase inhibitors - cell viability counter screen (AID 743084); settings: MCF-7 aro ERE viability, CellTiter-Fluor, 24 h; activity change, negative = cytotoxicity: at 70.3 µM (top of the series);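 note: cells stimulated with testosterone during compound exposure; nearly all actives have a fitted effect of over 55% in size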; note: potency is the fitted concentration of half-maximal effect
[5] = biological target: Androgen receptor (Homo sapiens) (UniProt P10275); experiment: qHTS assay to identify small molecule antagonists of the androgen receptor (AR) signaling pathway (AID 743035; active = well fitted inhibition curve with a large enough effect in the signal ratio in the repeat runs, not every such curve was filed as active; inconclusive = weak or mixed curves, or effect the other way; inactive = no such curve, though single readings can be large or run the other way; the % refers to the signal ratio; note: % is set by controls: 0 for no effect and ±100 for the full control effect); settings: HEK293 AR-UAS-bla, R1881-stimulated, beta-lactamase FRET, 16 h
In short: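 Fluorescence from a beta-lactamase FRET substrate (LiveBLAzer B/G, 2 h, room temperature) measured inhibition of R1881-stimulated signaling in GeneBLAzer AR-UAS-bla HEK293 cells exposed to compound for 16 h at 37C.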

[6] = biological target: Androgen receptor (Homo sapiens) (UniProt P10275); experiment: qHTS assay to identify small molecule agonists of the androgen receptor (AR) signaling pathway (AID 743036; active = well fitted activation curve with a large enough effect in the signal ratio in the repeat runs, with a control signal flat, not every such curve was filed as active; inconclusive = weak or mixed curves, or effect the other way; inactive = no such curve, though single readings can be large or run the other way; the % refers to the signal ratio; note: potency is the fitted concentration of half-maximal effect; for activation: % is set by controls: 0 for no effect and ±100 for the full control effect); settings: HEK293 AR-UAS-bla GripTite, beta-lactamase FRET ratio, 16 h; activation: at 62.4 µM (top of the series) unless noted
In short: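 Fluorescence from a beta-lactamase FRET substrate served as read-out in AR-UAS-bla GripTite HEK293 cells. Cells were treated with DMSO-dissolved compounds for 16 h at 37C, then with LiveBLAzer B/G substrate for 2 h at room temperature.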

[7] = qHTS assay to identify small molecule antagonists of the thyroid receptor (TR) signaling pathway - cell viability counter screen (AID 743064); settings: GH3.TRE-Luc viability, CellTiter-Fluor, 24 h; activity change, negative = cytotoxic: at 70.3 µM (top of the series) unless noted; note: nearly all actives have a fitted effect of over 50% in size; note: potency is the fitted concentration of half-maximal effect
In short: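 Fluorescence from CellTiter-Fluor, added after 23.5 h exposure at 37 °C, reported viability of GH3.TRE-Luc cells co-treated with compound and 1 nM T3. Measured in the same wells as the luciferase TR readout.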

[8] = biological target: Estrogen receptor (Homo sapiens) (UniProt P03372); experiment: qHTS assay to identify small molecule agonists of the estrogen receptor alpha (ER-alpha) signaling pathway using the BG1 cell line (AID 743079); settings: BG1Luc4E2 cells, ERE-luciferase agonist, 22 h; activation: at 70.3 µM (top of the series) unless noted; note: nearly all actives have a fitted effect of over 20% in size; note: potency is the fitted concentration of half-maximal effect
[9] = biological target: Estrogen receptor (Homo sapiens) (UniProt P03372); experiment: qHTS assay to identify small molecule antagonists of the estrogen receptor alpha (ER-alpha) signaling pathway (AID 743069; active = well fitted curve in the direction sought with a large enough effect in the signal ratio in the repeat runs, not every such curve was filed as active; inconclusive = weak or mixed curves, or effect the other way; inactive = no such curve, though single readings can be large or run the other way; the % refers to the signal ratio; note: potency is the fitted concentration of half-maximal effect; for activity, negative = inhibition: % is set by controls: 0 for no effect and ±100 for the full control effect); settings: HEK293 ER-alpha-UAS-bla, beta-lactamase ratio, antagonist mode; activity, negative = inhibition: at 69.4 µM (top of the series) unless noted
In short: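 ER-alpha-UAS-bla GripTite HEK293 line; 2% charcoal-stripped FBS overnight; plated, 4 hr 37C/5% CO2; cpd in DMSO + 17beta-estradiol, 18 hr 37C; LiveBLAzer B/G FRET substrate 2 hr RT; fluorescence intensity.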

[10] = qHTS assay to identify small molecule antagonists of the estrogen receptor alpha (ER-alpha) signaling pathway using the BG1 cell line - cell viability counter screen (AID 743081);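 note: compound given together with 17beta-estradiol as the ER stimulus; nearly all actives have a fitted effect of over 45% in size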; note: potency is the fitted concentration of half-maximal effect
[11] = qHTS assay to identify small molecule antagonists of the androgen receptor (AR) signaling pathway - cell viability counter screen (AID 743033; note: nearly all actives have a fitted effect of over 45% in size; note: potency is the fitted concentration of half-maximal effect); settings: AR-bla HEK293 viability, CellTiter-Glo luminescence, 16 h; activity change, negative = cytotoxicity: at 58.5 µM (top of the series)
[12] = qHTS assay to identify small molecule antagonists of the thyroid receptor (TR) signaling pathway (AID 743065); note: potency is the fitted concentration of half-maximal effect; nearly all actives have a fitted effect of over 55% in size
In short: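 Antagonism measured as loss of luciferase signal in GH3 cells stably carrying a TRE-luciferase reporter, co-treated with compound and T3 (1 nM final) for 23.5 h at 37 C. Viability was read in the same well by CellTiter-Fluor.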

Aromatase (Homo sapiens) = Aromatase (Homo sapiens) (UniProt P11511); experiment: qHTS assay to identify aromatase inhibitors (AID 743083); note: nearly all actives have a fitted effect of over 55% in size; note: potency is the fitted concentration of half-maximal effect
[13] = test system: thyroid hormone receptor (rat, GH3 cells); experiment: qHTS assay to identify small molecule agonists of the thyroid receptor (TR) signaling pathway (AID 743066; calls by dose curve; note: potency is the fitted concentration of half-maximal effect); settings: GH3.TRE-Luc cells, TR agonist luciferase, 24 h; activation: at 83.9 µM (top of the series) unless noted
[14] = qHTS assay to identify small molecule antagonists of the estrogen receptor alpha (ER-alpha) signaling pathway - cell viability counter screen (AID 743074; calls by dose curve;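 note: HEK293 cells carrying ER-alpha-UAS-bla reporter stimulated with 17beta-estradiol; potency is the fitted concentration of half-maximal effect; nearly all actives have a fitted effect of over 45% in size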)
[15] = qHTS assay to identify small molecule antagonists of the androgen receptor (AR) signaling pathway using the MDA cell line - cell viability counter screen (AID 743041; note: % is set by controls: 0 for no effect and ±100 for the full control effect; nearly all actives have a fitted effect of over 45% in size); settings: MDA-kb2 viability, CellTiter-Fluor, 16 h, cells co-treated with R1881 androgen agonist; viability change, negative = cytotoxic: at 70.3 µM (top of the series) unless noted
In short: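 Cells were plated at 3,000 per well and left 5 h. Compounds in DMSO were then pinned in, followed by R1881. After 16 h at 37C, CellTiter-Fluor fluorescence gave viability.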

[16] = activity change, negative = inhibition: at 58.5 µM (top of the series) unless noted
Tags give direction and shape of the fitted curve or compound fluorescence and quenching.

Sequence of UniProt P03372 (P03372 whole entry, looked up): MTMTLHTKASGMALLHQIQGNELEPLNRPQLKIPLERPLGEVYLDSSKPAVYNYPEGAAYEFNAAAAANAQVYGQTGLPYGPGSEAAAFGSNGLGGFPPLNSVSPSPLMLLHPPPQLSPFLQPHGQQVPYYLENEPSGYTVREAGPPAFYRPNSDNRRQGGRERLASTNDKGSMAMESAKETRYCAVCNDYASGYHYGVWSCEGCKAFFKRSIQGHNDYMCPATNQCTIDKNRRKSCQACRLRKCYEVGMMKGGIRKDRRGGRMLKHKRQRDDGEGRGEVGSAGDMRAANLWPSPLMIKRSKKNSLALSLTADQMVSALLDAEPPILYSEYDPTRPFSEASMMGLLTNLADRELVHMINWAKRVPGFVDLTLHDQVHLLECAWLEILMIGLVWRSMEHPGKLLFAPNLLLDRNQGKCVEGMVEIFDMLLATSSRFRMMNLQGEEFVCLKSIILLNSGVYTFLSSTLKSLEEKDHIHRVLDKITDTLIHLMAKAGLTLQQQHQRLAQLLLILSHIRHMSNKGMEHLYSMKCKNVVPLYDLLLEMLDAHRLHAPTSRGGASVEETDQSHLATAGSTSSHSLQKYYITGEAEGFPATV
Sequence of UniProt P10275 (P10275 whole entry, looked up): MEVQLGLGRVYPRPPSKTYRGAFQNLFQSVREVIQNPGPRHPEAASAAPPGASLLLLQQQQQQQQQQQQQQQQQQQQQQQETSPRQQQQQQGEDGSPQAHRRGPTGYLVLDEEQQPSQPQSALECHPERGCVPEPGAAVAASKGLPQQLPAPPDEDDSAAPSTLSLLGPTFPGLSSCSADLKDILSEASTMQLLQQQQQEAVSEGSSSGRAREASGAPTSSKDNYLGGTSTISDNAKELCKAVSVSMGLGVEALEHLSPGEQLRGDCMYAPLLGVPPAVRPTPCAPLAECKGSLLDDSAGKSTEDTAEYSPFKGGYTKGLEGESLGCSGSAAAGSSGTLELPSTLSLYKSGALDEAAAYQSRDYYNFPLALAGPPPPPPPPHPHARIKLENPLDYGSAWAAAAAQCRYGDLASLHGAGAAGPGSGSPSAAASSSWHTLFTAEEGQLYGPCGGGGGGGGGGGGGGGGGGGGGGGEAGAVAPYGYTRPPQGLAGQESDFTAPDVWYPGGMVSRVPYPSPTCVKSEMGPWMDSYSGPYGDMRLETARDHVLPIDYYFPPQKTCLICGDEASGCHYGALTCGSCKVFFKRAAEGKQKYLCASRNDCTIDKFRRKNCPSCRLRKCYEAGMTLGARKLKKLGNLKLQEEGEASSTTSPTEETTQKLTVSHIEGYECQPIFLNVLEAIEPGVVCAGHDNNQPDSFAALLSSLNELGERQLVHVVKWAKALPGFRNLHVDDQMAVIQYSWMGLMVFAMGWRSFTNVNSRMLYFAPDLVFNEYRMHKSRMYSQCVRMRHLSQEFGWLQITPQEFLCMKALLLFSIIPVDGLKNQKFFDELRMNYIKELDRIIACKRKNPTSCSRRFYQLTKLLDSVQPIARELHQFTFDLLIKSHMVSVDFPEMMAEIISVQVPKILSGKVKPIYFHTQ
Sequence of UniProt P11511 (P11511 whole entry, looked up): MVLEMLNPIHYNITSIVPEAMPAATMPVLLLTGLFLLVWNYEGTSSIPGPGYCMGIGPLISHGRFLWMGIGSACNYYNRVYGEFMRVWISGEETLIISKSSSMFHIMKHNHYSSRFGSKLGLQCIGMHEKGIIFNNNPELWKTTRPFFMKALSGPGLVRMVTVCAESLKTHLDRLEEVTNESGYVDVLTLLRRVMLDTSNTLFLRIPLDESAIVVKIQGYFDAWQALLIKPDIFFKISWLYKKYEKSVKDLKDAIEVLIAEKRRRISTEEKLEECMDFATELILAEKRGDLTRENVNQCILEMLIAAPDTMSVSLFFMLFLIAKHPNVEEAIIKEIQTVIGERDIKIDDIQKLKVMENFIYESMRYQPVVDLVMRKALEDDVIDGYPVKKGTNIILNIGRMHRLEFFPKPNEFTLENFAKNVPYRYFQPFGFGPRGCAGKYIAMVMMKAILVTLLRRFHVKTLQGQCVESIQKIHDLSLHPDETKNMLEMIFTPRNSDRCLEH

CC1=C(/C=C/C(C)=C\C=C\C(C)=C\C(=O)O)C(C)(C)CCC1
Potency [1]: inconclusive [cytotoxic, partial curve, poor fit] | Potency [2]: inconclusive [cytotoxic] | Potency [3]: active: 0.243 µM | Potency [4]: inconclusive [cytotoxic]

CCCCOC(=O)c1ccccc1
Potency [1]: inconclusive [cytotoxic, single point] | Potency [5, 16]: inactive | Potency [6]: inconclusive [activator, single point] | Potency [7]: inconclusive [rising, partial curve, poor fit] | Potency [8]: active: 34.4 µM

CC1(C)C(C=C(Cl)Cl)C1C(=O)OCc1cccc(Oc2ccccc2)c1 (stereo not given)
Potency [1]: inconclusive [rising, partial curve, poor fit] | activity change, negative = inhibition [5, 16]: inconclusive: 4.61% | activity change, negative = inhibition ([5]; at 58.5 µM (top of the series)): inactive: -10.8% and inactive: -9.19% | Potency [6]: inactive | Potency [9]: inactive | Potency [3]: inactive | Potency [10]: inactive

CCN(CC)CCNC(=O)c1ccc(NC(C)=O)cc1
Potency [1]: inactive | Potency [11]: inconclusive [rising, single point] | Potency [5, 16]: inactive | Potency [6]: inactive

CCCc1c(OCCCOc2ccc(OCC(=O)O)cc2)ccc(C(C)=O)c1O
Potency [1]: inactive | Potency [11]: inconclusive [cytotoxic, partial curve] | activity change, negative = inhibition [5, 16]: inconclusive: -23.4% | activation [6]: inconclusive: -20.2% | Potency [12]: inconclusive [inhibitor, single point] | Potency [9]: inconclusive [fluorescent, partial curve] | Potency [8]: inactive | Potency (Aromatase (Homo sapiens)): inconclusive [inhibitor, partial curve]

COCCOCCOCCO
Potency [1]: inconclusive [cytotoxic, full curve] | Potency [11]: inconclusive [rising, partial curve, poor fit] | Potency (Aromatase (Homo sapiens)): inactive

NC(=O)NS(=O)(=O)c1ccc(N)cc1
Potency [1]: inconclusive [rising, single point] | Potency [11]: inconclusive [rising, single point] | Potency [7]: inactive | activation [8]: inconclusive: 15.1% [phenotype inactive] | Potency [10]: inconclusive [rising, single point]

CC(CO)(CO)[N+](=O)[O-]
Potency [1]: inactive | Potency [2]: inactive | Potency [8]: inconclusive [activator, single point]

CC(=O)SC[C@@H](Cc1ccccc1)C(=O)NCC(=O)OCc1ccccc1
Potency [1]: inconclusive [rising, partial curve, poor fit] | Potency [2]: inactive | Potency [10]: inconclusive [rising, partial curve]

CCCCCCCCC1CO1 (stereo not given)
Potency [1]: inactive | Potency [5, 16]: inactive

CO[C@@H]1[C@@H](OC)[C@H](C)[C@@](O)(CC(=O)O)O[C@H]1[C@H](C)[C@H]1O[C@@]2(CC[C@@](C)([C@H]3CC[C@@](C)([C@@H]4O[C@@H]([C@H]5O[C@](C)(O)[C@H](C)C[C@@H]5C)C[C@@H]4OC4C[C@H](OC)[C@@H](OC)[C@H](C)O4)O3)O2)C[C@H](O)[C@H]1C (stereo not given in full)
Potency [1]: active: 0.15 µM | Potency [11]: inconclusive [cytotoxic, full curve] | Potency [7]: active: 0.422 µM | Potency [12]: active: 0.335 µM | Potency [13]: inconclusive [inhibitor, partial curve, poor fit] | Potency [9]: inconclusive [cytotoxic, full curve] | Potency [14]: inconclusive [cytotoxic, full curve] | Potency [8]: inconclusive [inhibitor, full curve] | Potency [3]: inconclusive [falling, full curve] | Potency [10]: active: 2.98 µM | Potency [4]: inconclusive [cytotoxic, full curve]

OCc1ccccc1O
Potency [1]: inactive | activity change, negative = cytotoxicity [11]: inconclusive: -34% [cytotoxic] | Potency (Aromatase (Homo sapiens)): inactive

OC1CCCc2ccccc21 (stereo not given)
Potency [1]: inconclusive [cytotoxic, single point] | Potency [2]: inconclusive [cytotoxic, single point] | Potency [9]: inactive

COc1cc(NC(C)CCCN)c2ncccc2c1 (stereo not given)
Potency [1]: inconclusive [cytotoxic, partial curve] | Potency [11]: inconclusive [rising, full curve, poor fit] | Potency [15]: inactive | Potency [7]: active: 11.4 µM | Potency [12]: inconclusive [inhibitor, single point] | Potency [8]: inconclusive [inhibitor, partial curve] | Potency [3]: inconclusive [falling, single point] | Potency [10]: active: 10.1 µM | Potency [4]: inactive
